# Several values for one entry are separate records, joined by “and”; a condition that tells them apart may be missing. Equal values may be shown once. Inconclusive means that the source gave no clear call. Such entries were picked first, then a sample of the others. For part of these data: No potency is given beside an inconclusive call; the fits are too rough. Activity calls are given as the source filed them. Unless noted, calls come from the whole dose curve; as a rule, active = well fitted curve in the direction sought with a large enough effect in the repeat runs; inconclusive = weak or mixed curves; inactive = no such curve, though single readings can be large; an effect the other way counts as inactive or inconclusive.
# Legend:
# [1] = A CellTox Green Cytotoxicity Assay to monitor cytotoxicity in HEK293 cells - 32 hour (AID 1224881); note: nearly all actives have a fitted effect of over 40% in size; note: potency is the fitted concentration of half-maximal effect
# How it was run: (§1)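 Cytotoxicity was tracked continuously in HEK293 cells by a DNA-binding dye excluded from viable cells. Compounds were transferred in DMSO 5 h after seeding; fluorescence was recorded at intervals up to 40 h.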
# [2] = qHTS RealTime-Glo MT Cell Viability Assay in HEK293 cells - 0 hour (AID 1224880); note: nearly all actives have a fitted effect of over 45% in size; note: potency is the fitted concentration of half-maximal effect
# How it was run: (§2)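 Nonlytic bioluminescent viability monitoring. HEK293 at 600 cells/well with reagent; 5 h settle; compound transfer by pintool; plates held at 37 C and read at set time points.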
# [3] = qHTS RealTime-Glo MT Cell Viability Assay in HepG2 cells - 0 hour (AID 1224889); note: nearly all actives have a fitted effect of over 50% in size; note: potency is the fitted concentration of half-maximal effect
# How it was run: (§3)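 HepG2 cells were seeded at 600 cells/well together with NanoLuc luciferase and a cell-permeant prosubstrate, preincubated 5 h at 37 C/5% CO2, then pin-dosed with compounds in DMSO. Nonlytic luminescence from viable cells was read at each time point.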
# [4] = qHTS assay to identify small molecule antagonists of the androgen receptor (AR) signaling pathway using the MDA cell line in the presence of 0.5 nM R1881 - cell viability counter screen (AID 1259242); note: nearly all actives have a fitted effect of over 45% in size; note: potency is the fitted concentration of half-maximal effect
# How it was run: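 Cytotoxicity toward MDA-kb2 cells is measured by CellTiter-Fluor live-cell protease fluorescence after 16 hr compound exposure at 37C in the presence of 0.5 nM R1881 stimulator.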
# [5] = target: Androgen receptor (Homo sapiens) (UniProt P10275); assay: qHTS assay to identify small molecule antagonists of the androgen receptor (AR) signaling pathway using the MDA cell line in the presence of 0.5 nM R1881 (AID 1259243); note: nearly all actives have a fitted effect of over 50% in size
# Chain of UniProt P10275 (P10275 whole entry, looked up): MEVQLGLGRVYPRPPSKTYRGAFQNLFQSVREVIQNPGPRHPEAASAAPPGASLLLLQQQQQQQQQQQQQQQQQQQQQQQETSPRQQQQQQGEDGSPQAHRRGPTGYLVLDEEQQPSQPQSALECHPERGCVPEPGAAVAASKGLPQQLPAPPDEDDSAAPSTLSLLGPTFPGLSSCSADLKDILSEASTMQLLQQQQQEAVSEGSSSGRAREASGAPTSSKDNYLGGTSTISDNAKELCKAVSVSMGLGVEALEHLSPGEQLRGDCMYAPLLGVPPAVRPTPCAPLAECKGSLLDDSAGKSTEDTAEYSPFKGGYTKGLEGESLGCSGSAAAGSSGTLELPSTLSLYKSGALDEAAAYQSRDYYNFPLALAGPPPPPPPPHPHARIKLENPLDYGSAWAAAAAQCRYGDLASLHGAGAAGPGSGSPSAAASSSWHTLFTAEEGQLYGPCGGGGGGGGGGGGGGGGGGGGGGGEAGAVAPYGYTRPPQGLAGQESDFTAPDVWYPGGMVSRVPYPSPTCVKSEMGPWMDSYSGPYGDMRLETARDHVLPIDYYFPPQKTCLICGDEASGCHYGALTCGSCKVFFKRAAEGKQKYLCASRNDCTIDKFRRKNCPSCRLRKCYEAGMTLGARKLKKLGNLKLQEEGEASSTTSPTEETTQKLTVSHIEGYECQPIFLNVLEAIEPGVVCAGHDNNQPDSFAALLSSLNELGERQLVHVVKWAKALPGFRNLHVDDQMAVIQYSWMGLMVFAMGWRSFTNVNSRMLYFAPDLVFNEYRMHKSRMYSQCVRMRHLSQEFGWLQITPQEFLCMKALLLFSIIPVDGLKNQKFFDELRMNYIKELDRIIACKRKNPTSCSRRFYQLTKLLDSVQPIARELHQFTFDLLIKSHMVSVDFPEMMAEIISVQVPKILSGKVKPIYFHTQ
# How it was run: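 Steps: seed MDA-kb2 cells, incubate 5 hr at 37C; pin-transfer compounds in DMSO; add R1881 to 0.5 nM final; incubate 16 hr; add ONE-Glo, wait 30 min at room temperature; read luminescence.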
# [6] = target: Estrogen receptor (Homo sapiens) (UniProt P03372); assay: qHTS assay to identify small molecule antagonists of the estrogen receptor alpha (ER-alpha) signaling pathway using the BG1 cell line in the presence of 0.1 nM 17-beta-estradiol (AID 1259244); note: nearly all actives have a fitted effect of over 50% in size
# Chain of UniProt P03372 (P03372 whole entry, looked up): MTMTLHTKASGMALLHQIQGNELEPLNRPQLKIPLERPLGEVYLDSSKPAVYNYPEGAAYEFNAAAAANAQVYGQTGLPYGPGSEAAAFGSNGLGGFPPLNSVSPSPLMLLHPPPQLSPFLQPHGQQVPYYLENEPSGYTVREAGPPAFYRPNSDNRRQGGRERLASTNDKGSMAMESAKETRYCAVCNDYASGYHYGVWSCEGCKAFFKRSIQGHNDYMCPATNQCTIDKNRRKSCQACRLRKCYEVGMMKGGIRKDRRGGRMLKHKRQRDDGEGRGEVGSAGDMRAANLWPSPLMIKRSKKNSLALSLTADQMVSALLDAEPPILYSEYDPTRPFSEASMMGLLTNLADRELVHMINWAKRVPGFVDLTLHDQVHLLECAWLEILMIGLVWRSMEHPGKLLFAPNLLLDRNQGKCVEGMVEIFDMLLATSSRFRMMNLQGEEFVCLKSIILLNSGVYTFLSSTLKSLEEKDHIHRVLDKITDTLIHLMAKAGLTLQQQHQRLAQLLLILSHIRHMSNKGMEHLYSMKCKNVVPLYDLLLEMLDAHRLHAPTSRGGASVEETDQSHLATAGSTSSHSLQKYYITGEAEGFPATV
# How it was run: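 After 5 days in hormone-depleted medium (charcoal-stripped serum, no phenol red), VM7Luc4E2 cells were seeded, incubated 24 h, then co-treated with compound and 0.1 nM (final) estradiol for 22 h before luminescence detection.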
# [7] = qHTS assay to identify small molecule antagonists of the sonic hedgehog signaling (Shh) pathway - cell viability counter screen (AID 1259367); note: potency is the fitted concentration of half-maximal effect; nearly all actives have a fitted effect of over 55% in size
# How it was run: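 NIH/3T3-derived Gli1-Luc reporter cells (2,000 per well) rested 4 hr at 37 C, then received DMSO compounds plus conditioned medium. After 23 hr of treatment, CellTiter-Fluor was added for 1 hr at 37C and fluorescence read.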
# [8] = qHTS assay to identify small molecule agonists of the sonic hedgehog signaling (Shh) pathway - cell viability counter screen (AID 1259366); note: nearly all actives have a fitted effect of over 50% in size
# How it was run: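 NIH/3T3-derived 3T3 Gli1-Luc cells (stable Gli1-responsive firefly luciferase reporter) were seeded, rested 4 hr at 37 C/5% CO2, then exposed to compounds in DMSO for 24 hr; viability was read by CellTiter-Fluor fluorescence in the same wells.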
# [9] = qHTS assay to identify small molecule phospholipidosis (PLD) inducers (AID 1259344; active = well fitted curve in the direction sought with a large enough effect; inconclusive = small, poorly fitted or top-dose-only effect, or another doubt; inactive = no such curve, though single readings can be large; an effect the other way counts as inactive or inconclusive; note: potency is the fitted concentration of half-maximal effect); details: HepG2 phospholipidosis, LipidTOX Red imaging, 24 h; series mostly up to 38.3 µM
# How it was run: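 HepG2 cells on collagen I, attached 4 h at 37 C, were co-treated with compound and LipidTOX Red dye for 24 h at 37 C, then fixed with paraformaldehyde plus Hoechst 33342 and imaged by high-content microscopy for phospholipid accumulation.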
# [10] = A CellTox Green Cytotoxicity Assay to monitor cytotoxicity in HepG2 cells - 0 hour (AID 1224882); note: potency is the fitted concentration of half-maximal effect; nearly all actives have a fitted effect of over 35% in size
# How it was run: (§4)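 Real-time, homogeneous cytotoxicity readout: dead-cell DNA staining by CellTox Green in HepG2 monolayers, fluorescence measured at timed intervals up to 40 h of continuous compound exposure.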
# [11] = qHTS RealTime-Glo MT Cell Viability Assay in HepG2 cells - 16 hour (AID 1224885)
# How it was run: as §3
# [12] = qHTS RealTime-Glo MT Cell Viability Assay in HEK293 cells - 24 hour (AID 1224886)
# How it was run: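 HEK293 cells were seeded at 600 cells/well together with NanoLuc luciferase and cell-permeant prosubstrate, preincubated 5 h at 37 C/5% CO2, then given compound in DMSO by pintool. Luminescence from viable-cell prosubstrate reduction was read repeatedly over 40 h.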
# [13] = qHTS RealTime-Glo MT Cell Viability Assay in HEK293 cells - 8 hour (AID 1224887)
# How it was run: as §2
# [14] = A CellTox Green Cytotoxicity Assay to monitor cytotoxicity in HEK293 cells - 16 hour (AID 1224888); note: potency is the fitted concentration of half-maximal effect; nearly all actives have a fitted effect of over 35% in size
# How it was run: as §1
# [15] = A CellTox Green Cytotoxicity Assay to monitor cytotoxicity in HepG2 cells - 8 hour (AID 1224890); note: potency is the fitted concentration of half-maximal effect; nearly all actives have a fitted effect of over 45% in size
# How it was run: as §4
# Tags give direction and shape of the fitted curve.
smiles,measurement,setting,value
COc1cc(Cl)ccc1Cl,Potency,[1],"inconclusive [activator, single point]"
C[C@H]1C[C@@H]2[C@H]([C@@H](O)C[C@@]3(C)[C@H]2CC[C@]3(O)C(=O)CO)[C@@]2(C)C=CC(=O)C=C12,Potency,[2],active: 7.76 µM and active: 8.49 µM
same,Potency,[3],active: 871 nM and active: 1.9 µM
same,Potency,[4],inactive
same,Potency,[5],inactive
Cc1ccc(C(N)=O)cc1N,Potency,[2],"inconclusive [rising, partial curve, poor fit]"
same,Potency,[3],inactive
CC(=O)CC(c1ccc([N+](=O)[O-])cc1)c1c(O)c2ccccc2oc1=O (centres undefined),Potency,[2],"inconclusive [falling, partial curve, poor fit]"
same,Potency,[6],inactive
CCc1cc(C2=C(C(=O)O)N(c3ccccc3C(F)(F)F)S(=O)(=O)c3ccccc32)cc2c1OCO2,Potency,[2],active: 43.1 µM
same,Potency,[3],active: 24.3 µM
same,Potency,[7],active: 12.1 µM
CC(C)c1ccc2c(C(C)C)cc(C(C)C)c(S(=O)(=O)O)c2c1,Potency,[1],"inconclusive [activator, partial curve, poor fit]"
COc1ccc(N=Nc2cc(C)c(N=Nc3ccc(S(=O)(=O)O)cc3)cc2OC)cc1,Potency,[2],"inconclusive [falling, partial curve]"
same,Potency,[3],"inconclusive [cytotoxic, partial curve]"
same,Potency,[4],active: 48.6 µM
C=CC(=O)OCCC(=O)O,Potency,[2],inactive
same,Potency,[8],inactive
Brc1ccc(Oc2ccc(Br)cc2)cc1,Potency,[1],inactive
CC(C)=CC=O,Potency,[1],inactive
COc1cc(OC)c(C(=O)CCCN2CCCC2)c(OC)c1,Potency,[1],inactive
CN1CCC(=C2c3ccccc3Sc3ccccc32)CC1,Potency,[2],"inconclusive [rising, partial curve]"
same,Potency,[3],"inconclusive [rising, single point]"
same,Potency,[9],active: 10 µM
CCCCCC(C)O (centres undefined),Potency,[1],inactive
CNCCS(=O)(=O)O,Potency,[1],inactive
CC(=O)OCC(=O)[C@@]12OC(C)(C)O[C@@H]1C[C@H]1[C@@H]3C[C@H](F)C4=CC(=O)C=C[C@]4(C)[C@@]3(F)[C@@H](O)C[C@@]12C,Potency,[2],"inconclusive [falling, partial curve]"
same,Potency,[3],active: 2.68 µM
same,Potency,[6],inactive
CNCCCCOc1ccccc1Cc1ccccc1,Potency,[1],"inconclusive [activator, single point]"
same,Potency,[10],"inconclusive [activator, partial curve, poor fit]"
same,Potency,[11],"inconclusive [cytotoxic, single point]"
same,Potency,[12],active: 21.3 µM
same,Potency,[13],"inconclusive [cytotoxic, single point]"
same,Potency,[14],"inconclusive [activator, single point]"
same,Potency,[15],active: 21.3 µM
same,Potency,[4],"inconclusive [cytotoxic, single point]"
same,Potency,[9],"inconclusive [activator, single point]"
CCCCCCc1ccc(-c2ccc(C#N)cc2)cc1,Potency,[1],inactive
